# Source: the supplement of paper PMC8728848
# This is one part of the list.
# Tests used:
# Assay in all cases: glycan array binding signal (z-score within array); higher = stronger binding
# Conditions in all cases: glycan notation: IUPAC condensed, linker removed
# Fuc(a1-2)Gal = biological target: Fuc(a1-2)Gal
# How it was run: (§1)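 Glycan array binding is given as a within-array Z-score, which can be read as non-binding when negative. The arrays, 3228 of them, came from the Consortium for Functional Glycomics database and were retained only where the protein sequence was available. Z-scores were averaged across arrays of the same protein sequence at different concentrations or buffers and across linkers.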
# Fuc(a1-2)Gal(b1-3)GalNAc = biological target: Fuc(a1-2)Gal(b1-3)GalNAc
# How it was run: as §1
# [1] = biological target: Fuc(a1-2)Gal(b1-3)GalNAc(a1-3)[Fuc(a1-2)]Gal(b1-4)Glc
# How it was run: as §1
# [2] = biological target: Fuc(a1-2)Gal(b1-3)GalNAc(a1-3)[Fuc(a1-2)]Gal(b1-4)GlcNAc
# How it was run: as §1
# [3] = biological target: Fuc(a1-2)Gal(b1-3)GalNAc(b1-3)Gal
# How it was run: as §1
# [4] = biological target: Fuc(a1-2)Gal(b1-3)GalNAc(b1-3)Gal(a1-4)Gal(b1-4)Glc
# How it was run: as §1
# [5] = biological target: Fuc(a1-2)Gal(b1-3)GalNAc(b1-4)[Neu5Ac(a2-3)]Gal(b1-4)Glc
# How it was run: as §1
# Fuc(a1-2)Gal(b1-3)GlcNAc = biological target: Fuc(a1-2)Gal(b1-3)GlcNAc
# How it was run: as §1
# [6] = biological target: Fuc(a1-2)Gal(b1-3)GlcNAc(b1-2)Man(a1-3)[Fuc(a1-2)Gal(b1-3)GlcNAc(b1-2)Man(a1-6)]Man(b1-4)GlcNAc(b1-4)GlcNAc
# How it was run: as §1
# [7] = biological target: Fuc(a1-2)Gal(b1-3)GlcNAc(b1-2)Man(a1-3)[Fuc(a1-2)Gal(b1-3)GlcNAc(b1-2)Man(a1-6)]Man(b1-4)GlcNAc(b1-4)[Fuc(a1-6)]GlcNAc
# How it was run: as §1
# [8] = biological target: Fuc(a1-2)Gal(b1-3)GlcNAc(b1-3)Gal(b1-4)Glc
# How it was run: as §1
# [9] = biological target: Fuc(a1-2)Gal(b1-3)GlcNAc(b1-3)GalNAc
# How it was run: as §1
# [10] = biological target: Fuc(a1-2)Gal(b1-3)GlcNAc(b1-3)[Fuc(a1-2)Gal(b1-3)GlcNAc(b1-6)]GalNAc
# How it was run: as §1
# [11] = biological target: Fuc(a1-2)Gal(b1-3)GlcNAc(b1-3)[Fuc(a1-3)[Gal(b1-4)]GlcNAc(b1-6)]Gal(b1-4)Glc
# How it was run: as §1
# [12] = biological target: Fuc(a1-2)Gal(b1-3)GlcNAc(b1-3)[Gal(b1-4)GlcNAc(b1-6)]Gal(b1-4)Glc
# How it was run: as §1
# [13] = biological target: Fuc(a1-2)Gal(b1-3)GlcNAc(b1-3)[Neu5Ac(a2-6)Gal(b1-4)GlcNAc(b1-6)]Gal(b1-4)Glc
# How it was run: as §1
# [14] = biological target: Fuc(a1-2)Gal(b1-3)GlcNAc6S
# How it was run: as §1
# [15] = biological target: Fuc(a1-2)Gal(b1-3)[Fuc(a1-4)]GlcNAc
# How it was run: as §1
# [16] = biological target: Fuc(a1-2)Gal(b1-3)[Fuc(a1-4)]GlcNAc(b1-2)Man(a1-3)[Fuc(a1-2)Gal(b1-3)[Fuc(a1-4)]GlcNAc(b1-2)Man(a1-6)]Man(b1-4)GlcNAc(b1-4)GlcNAc
# How it was run: as §1
# [17] = biological target: Fuc(a1-2)Gal(b1-3)[Fuc(a1-4)]GlcNAc(b1-2)Man(a1-6)[Fuc(a1-2)Gal(b1-3)[Fuc(a1-4)]GlcNAc(b1-2)Man(a1-3)]Man(b1-4)GlcNAc(b1-4)[Fuc(a1-6)]GlcNAc
# How it was run: as §1
# [18] = biological target: Fuc(a1-2)Gal(b1-3)[Fuc(a1-4)]GlcNAc(b1-3)[Fuc(a1-3)[Gal(b1-4)]GlcNAc(b1-6)]Gal(b1-4)Glc
# How it was run: as §1
# [19] = biological target: Fuc(a1-2)Gal(b1-3)[Fuc(a1-4)]GlcNAc(b1-3)[Gal(b1-4)GlcNAc(b1-6)]Gal(b1-4)Glc
# How it was run: as §1
# Fuc(a1-2)Gal(b1-4)Glc = biological target: Fuc(a1-2)Gal(b1-4)Glc
# How it was run: as §1
# Fuc(a1-2)Gal(b1-4)Glc6S = biological target: Fuc(a1-2)Gal(b1-4)Glc6S
# How it was run: as §1
# Fuc(a1-2)Gal(b1-4)GlcNAc = biological target: Fuc(a1-2)Gal(b1-4)GlcNAc
# How it was run: as §1
# [20] = biological target: Fuc(a1-2)Gal(b1-4)GlcNAc(b1-2)Man
# How it was run: as §1
# [21] = biological target: Fuc(a1-2)Gal(b1-4)GlcNAc(b1-2)Man(a1-3)[Fuc(a1-2)Gal(b1-4)GlcNAc(b1-2)Man(a1-6)]Man(b1-4)GlcNAc(b1-4)GlcNAc
# How it was run: as §1
# [22] = biological target: Fuc(a1-2)Gal(b1-4)GlcNAc(b1-2)Man(a1-3)[Fuc(a1-2)Gal(b1-4)GlcNAc(b1-2)Man(a1-6)]Man(b1-4)GlcNAc(b1-4)[Fuc(a1-6)]GlcNAc
# How it was run: as §1
# [23] = biological target: Fuc(a1-2)Gal(b1-4)GlcNAc(b1-2)[Fuc(a1-2)Gal(b1-4)GlcNAc(b1-4)]Man(a1-3)[Fuc(a1-2)Gal(b1-4)GlcNAc(b1-2)Man(a1-6)]Man(b1-4)GlcNAc(b1-4)GlcNAc
# How it was run: as §1
# [24] = biological target: Fuc(a1-2)Gal(b1-4)GlcNAc(b1-3)Gal(b1-4)GlcNAc
# How it was run: as §1
binder,measurement,setting,value
"ArathEULS3 (Arabidopsis thaliana), Q945P1 (protein) MEHHHQHHRHHQRDDGEDDRQSFGVPPPHVDAPPQPHGLYQSQPHFDPYAPTPQAPAPYRSETQFEPHAPPPYRSEPYFETPAPPPSFGHVSHVGHQSPNESYPPEHHRYGGYQQPSNSLLESHGDHSGVTHVAHHSSNQPQSSSGVYHKPDENRLPDNLAGLAGRATVKVYSKAEPNYNLTIRDGKVILAPADPSDEAQHWYKDEKYSTKVKDADGHPCFALVNKATGEAMKHSVGATHPVHLIRYVPDKLDESVLWTESKDFGDGYRTIRMVNNTRLNVDAYHGDSKSGGVRDGTTIVLWDWNKGDNQLWKIFPFILEQKLISEEDLNSAVDHHHHHH",glycan array binding signal (z-score),Fuc(a1-2)Gal,0.402
same,glycan array binding signal (z-score),Fuc(a1-2)Gal(b1-3)GalNAc,0.059
same,glycan array binding signal (z-score),[1],-0.275
same,glycan array binding signal (z-score),[2],-0.18
same,glycan array binding signal (z-score),[3],0.001
same,glycan array binding signal (z-score),[4],-0.313
same,glycan array binding signal (z-score),[5],-0.184
same,glycan array binding signal (z-score),Fuc(a1-2)Gal(b1-3)GlcNAc,-0.25
same,glycan array binding signal (z-score),[6],-0.068
same,glycan array binding signal (z-score),[7],0.265
same,glycan array binding signal (z-score),[8],0.024
same,glycan array binding signal (z-score),[9],-0.252
same,glycan array binding signal (z-score),[10],-0.058
same,glycan array binding signal (z-score),[11],0.182
same,glycan array binding signal (z-score),[12],-0.249
same,glycan array binding signal (z-score),[13],-0.159
same,glycan array binding signal (z-score),[14],-0.065
same,glycan array binding signal (z-score),[15],0.438
same,glycan array binding signal (z-score),[16],-0.053
same,glycan array binding signal (z-score),[17],-0.223
same,glycan array binding signal (z-score),[18],-0.06
same,glycan array binding signal (z-score),[19],1.47
same,glycan array binding signal (z-score),Fuc(a1-2)Gal(b1-4)Glc,-0.084
same,glycan array binding signal (z-score),Fuc(a1-2)Gal(b1-4)Glc6S,-0.487
same,glycan array binding signal (z-score),Fuc(a1-2)Gal(b1-4)GlcNAc,-0.135
same,glycan array binding signal (z-score),[20],-0.386
same,glycan array binding signal (z-score),[21],-0.069
same,glycan array binding signal (z-score),[22],0.565
same,glycan array binding signal (z-score),[23],0.36
same,glycan array binding signal (z-score),[24],-0.205
